# Data reported in PubChem BioAssay (NCATS).
# “And” between values parts separate entries of the source, which are not always exact repeats. Equal entries are not always repeated. This list was built around the results that the source calls inconclusive (neither active nor inactive); the mix of calls is not that of the screen. Potencies of inconclusive entries are doubtful fits and often do not repeat. The source made the active and inactive calls. The call rests on the fitted dose curve; in most records, active means well fitted curve in the direction sought with a large enough effect; inconclusive means small, poorly fitted or top-dose-only effect, or another doubt; inactive means no such curve, though single readings can be large; an effect the other way counts as inactive or inconclusive.
# Key:
# [1] = P-glycoprotein substrates identified in KB-8-5-11 adenocarcinoma cell line, qHTS therapeutic library screen (AID 1346987); further: nearly all actives have a fitted effect of over 65% in size
# How it was run: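 P-gp-mediated resistance screen: KB-8-5-11 cells treated 72 h with compounds in dose-response. CellTiter-Glo viability.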
# CRL-7250 = normal cell line; assay: Cytotoxic Profiling of Annotated Libraries Using Quantitative High-Throughput Screening (AID 1296008); settings: Five cell lines viability, CellTiter-Glo ATP luminescence, 48-72 h; max response: stronger effect = lower value; further: nearly all actives have a fitted effect of over 60% in size; on max response: on the % scale 0 is the no-effect control and ±100 the full control effect
# How it was run: (§1)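 Cells exposed to compounds for 48 or 72 hr at 37 degrees Celsius. Viability read as ATP-coupled luminescence with CellTiter-Glo after 10 min at room temperature.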
# HEK293 = assay: as above; settings: Five cell lines viability, CellTiter-Glo ATP luminescence, 48-72 h; max response: stronger effect = lower value
# How it was run: as §1
# HaCat = assay: as above; settings: Five cell lines viability, CellTiter-Glo ATP luminescence, 48-72 h; max response: stronger effect = lower value
# How it was run: as §1
# KB-3-1 = assay: as above; settings: Five cell lines viability, CellTiter-Glo ATP luminescence, 48-72 h; max response: stronger effect = lower value
# How it was run: as §1
# Hek293T = assay: Primary qHTS to identify gynecologic anti-cancer compounds using libraries of approved drugs and bioactive compounds (AID 1345084); settings: Gynecologic cancer cell panel viability, ATPlite luminescence, 48 h, control line for the selectivity index; series mostly up to 57.5 µM; further: nearly all actives have a fitted effect of over 55% in size; on activity change, negative = cytotoxicity: on the % scale 0 is the no-effect control and ±100 the full control effect
# How it was run: (§2)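 48 h compound exposure at 37 C, 5% CO2; five-point qHTS. ATPlite luminescence readout of cell ATP.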
# SKOV3 = assay: as above; settings: Gynecologic cancer cell panel viability, ATPlite luminescence, 48 h; series mostly up to 57.5 µM
# How it was run: as §2
# NIH3T3 = assay: Cytotoxic Profiling of Annotated Libraries Using Quantitative High-Throughput Screening (AID 1296008); settings: Five cell lines viability, CellTiter-Glo ATP luminescence, 48-72 h; max response: stronger effect = lower value; further: nearly all actives have a fitted effect of over 60% in size
# How it was run: as §1
# Es-2 = assay: Primary qHTS to identify gynecologic anti-cancer compounds using libraries of approved drugs and bioactive compounds (AID 1345084); settings: Gynecologic cancer cell panel viability, ATPlite luminescence, 48 h; series mostly up to 57.5 µM; further: nearly all actives have a fitted effect of over 55% in size; on activity change, negative = cytotoxicity: on the % scale 0 is the no-effect control and ±100 the full control effect
# How it was run: as §2
# [2] = Primary qHTS for inhibitors of nuclear receptor binding SET domain protein 2 (NSD2) in an RCH-ACV wild type WT cells (2C) (AID 1645877); settings: activity change, negative = cell killing: at 44.9 µM (top of the series); further: nearly all actives have a fitted effect of over 70% in size
# PA-1 = assay: Primary qHTS to identify gynecologic anti-cancer compounds using libraries of approved drugs and bioactive compounds (AID 1345084); settings: Gynecologic cancer cell panel viability, ATPlite luminescence, 48 h; series mostly up to 57.5 µM; further: nearly all actives have a fitted effect of over 55% in size; on activity change, negative = cytotoxicity: on the % scale 0 is the no-effect control and ±100 the full control effect
# How it was run: as §2
# Tov-21-G = assay: as above; settings: Gynecologic cancer cell panel viability, ATPlite luminescence, 48 h; activity change, negative = cytotoxicity: at 57.5 µM (top of the series)
# How it was run: as §2
# Tov112D = assay: as above; settings: Gynecologic cancer cell panel viability, ATPlite luminescence, 48 h; activity change, negative = cytotoxicity: at 57.5 µM (top of the series)
# How it was run: as §2
# C33A = assay: as above; settings: Gynecologic cancer cell panel viability, ATPlite luminescence, 48 h; series mostly up to 57.5 µM
# How it was run: as §2
# CAOV3 = assay: as above; settings: Gynecologic cancer cell panel viability, ATPlite luminescence, 48 h; series mostly up to 57.5 µM
# How it was run: as §2
# CASKI = assay: as above; settings: Gynecologic cancer cell panel viability, ATPlite luminescence, 48 h; activity change, negative = cytotoxicity: at 57.5 µM (top of the series)
# How it was run: as §2
# HeLa = assay: as above; settings: Gynecologic cancer cell panel viability, ATPlite luminescence, 48 h; series mostly up to 57.5 µM
# How it was run: as §2
# JEG-3 = assay: as above; settings: Gynecologic cancer cell panel viability, ATPlite luminescence, 48 h; series mostly up to 57.5 µM
# How it was run: as §2
# OV90 = assay: as above; settings: Gynecologic cancer cell panel viability, ATPlite luminescence, 48 h; series mostly up to 57.5 µM
# How it was run: as §2
# [3] = Primary qHTS for inhibitors of nuclear receptor binding SET domain protein 2 (NSD2) in an isogenic RCH-ACV NSD2 p.E1099K mutant (9B) (AID 1645876); further: nearly all actives have a fitted effect of over 70% in size
# Potency means the concentration at half of the fitted maximal effect; tags describe the fitted curve by direction and shape.
compound,measurement,setting,value
C=C1C(=O)O[C@@H]2/C=C(/C)CC3C=C(C[C@H](OC(=O)/C(C)=C\C)[C@@H]12)C(=O)O3 (stereo not given in full),Potency,[1],"inconclusive: 16.1 µM [inhibitor, single point]"
same,Potency,CRL-7250,"inconclusive: 14.3 µM [inhibitor, single point]"
same,Potency,HEK293,"inconclusive: 12.8 µM [inhibitor, single point]"
same,Potency,HaCat,"inconclusive: 18 µM [inhibitor, single point]"
same,Potency,KB-3-1,"inconclusive: 11.4 µM [inhibitor, single point]"
same,Potency,Hek293T,"inconclusive: 31.6 µM [cytotoxic, single point]"
same,Potency,SKOV3,inactive
O=C(CCN1CCC(c2ccccc2)C1)c1ccc2c(c1)OCCO2 (stereo not given),Potency,CRL-7250,"inconclusive: 33.5 µM [inhibitor, single point]"
same,Potency,HEK293,"inconclusive: 29.9 µM [inhibitor, single point]"
same,outcome,HaCat,inactive
same,Potency,NIH3T3,"inconclusive: 23.7 µM [inhibitor, single point]"
same,Potency,SKOV3,"inconclusive: 10 µM [rising, partial curve, poor fit]"
Cc1cccc(C)c1NC(=O)CN1CCCC1,Potency,CRL-7250,"inconclusive: 26.6 µM [inhibitor, single point]"
same,max response,HEK293,inactive: 0.0979%
same,outcome,HaCat,inactive
same,max response,KB-3-1,inactive: 8.28%
same,Potency,Es-2,inactive
Nc1ccn([C@@H]2C(F)=C(CO)[C@@H](O)[C@H]2O)c(=O)n1,Potency,[1],active: 10.3 µM
same,Potency,[2],active: 0.332 µM
same,Potency,CRL-7250,"inconclusive: 2.95 µM [inhibitor, full curve]"
same,Potency,HEK293,active: 920 nM and active: 933 nM
same,Potency,HaCat,"active: 18.4 µM and inconclusive: 18.6 µM [inhibitor, partial curve, poor fit]"
same,Potency,KB-3-1,active: 9.2 µM
same,Potency,Es-2,"inconclusive: 5.01 µM [cytotoxic, partial curve, poor fit]"
same,Potency,Hek293T,"inconclusive: 3.98 µM [cytotoxic, full curve]"
same,Potency,PA-1,active: 2.24 µM
same,Potency,SKOV3,"inconclusive: 17.8 µM [cytotoxic, partial curve, poor fit]"
same,Potency,Tov-21-G,"inconclusive: 1.41 µM [cytotoxic, full curve, poor fit]"
same,Potency,Tov112D,"inconclusive: 1.58 µM [cytotoxic, full curve]"
CN1CCN(Cc2ccc(-c3cnc4[nH]cc(-c5ccc6[nH]ccc6c5)c4c3)cc2)CC1,Potency,[1],active: 7.31 µM
same,Potency,CRL-7250,active: 10.3 µM
same,Potency,HEK293,active: 6.51 µM
same,Potency,HaCat,"inconclusive: 23.1 µM [inhibitor, single point]"
same,Potency,KB-3-1,active: 9.2 µM
same,Potency,C33A,"inconclusive: 20 µM [cytotoxic, single point]"
same,Potency,CAOV3,active: 22.4 µM
same,Potency,CASKI,"inconclusive: 20 µM [cytotoxic, partial curve, poor fit]"
same,Potency,Es-2,active: 22.4 µM
same,Potency,HeLa,active: 31.6 µM
same,Potency,Hek293T,"inconclusive: 31.6 µM [cytotoxic, single point]"
same,Potency,JEG-3,"inconclusive: 39.8 µM [cytotoxic, single point]"
same,Potency,OV90,active: 10 µM
same,Potency,PA-1,active: 12.6 µM
same,Potency,SKOV3,active: 14.1 µM
same,Potency,Tov-21-G,active: 20 µM
same,Potency,Tov112D,"inconclusive: 25.1 µM [cytotoxic, partial curve, poor fit]"
Cc1sc2c(c1C)C(c1ccc(Cl)cc1)=N[C@@H](CC(=O)Nc1ccc(OCCOCCOCCOCCNc3cccc4c3C(=O)N(C3CCC(=O)NC3=O)C4=O)cc1)c1nnc(C)n1-2 (stereo not given in full),Potency,[1],"inconclusive: 5.02 µM [inhibitor, partial curve]"
same,Potency,[2],active: 3.2 nM and active: 14.8 nM
same,Potency,CRL-7250,"inconclusive: 0.0399 µM [inhibitor, full curve]"
same,Potency,HEK293,active: 0.0447 µM
same,Potency,HaCat,"inconclusive: 0.1 µM [inhibitor, full curve, poor fit]"
same,Potency,KB-3-1,"inconclusive: 0.0355 µM [inhibitor, full curve, poor fit]"
same,Potency,CAOV3,"inconclusive: 0.355 µM [cytotoxic, full curve, poor fit]"
same,Potency,CASKI,"inconclusive: 0.891 µM [cytotoxic, full curve, poor fit]"
same,Potency,Es-2,"inconclusive: 0.891 µM [cytotoxic, full curve]"
same,Potency,HeLa,"inconclusive: 0.126 µM [cytotoxic, full curve, poor fit]"
same,Potency,JEG-3,"inconclusive: 0.0708 µM [cytotoxic, full curve, poor fit]"
same,Potency,OV90,"inconclusive: 3.16 µM [cytotoxic, full curve]"
same,Potency,PA-1,inconclusive: 0.398 µM
same,Potency,SKOV3,active: 2.82 µM
same,Potency,Tov-21-G,"inconclusive: 0.158 µM [cytotoxic, full curve, poor fit]"
same,Potency,Tov112D,"inconclusive: 2.51 µM [cytotoxic, full curve]"
COc1ccc2c(c1)CN(C(=O)CCN1CCC(Cc3ccccc3)CC1)CCS2,Potency,[2],active: 10 µM
same,Potency,CRL-7250,"inconclusive: 14.2 µM [inhibitor, single point]"
same,Potency,HEK293,"inconclusive: 11.2 µM [inhibitor, single point]"
same,Potency,HaCat,"inconclusive: 0.159 µM [inhibitor, partial curve, poor fit]"
same,Potency,KB-3-1,"inconclusive: 10 µM [inhibitor, single point]"
same,Potency,C33A,inactive
same,Potency,CAOV3,"inconclusive: 10 µM [cytotoxic, single point]"
same,Potency,OV90,active: 6.31 µM
same,Potency,SKOV3,"inconclusive: 17.8 µM [cytotoxic, single point]"
same,Potency,Tov112D,inactive
C[C@H]1Oc2cc(cnc2N)-c2c(nn(C)c2C#N)CN(C)C(=O)c2ccc(F)cc21,Potency,[3],"inconclusive: 20.5 µM [inhibitor, single point] and inconclusive: 18.6 µM [inhibitor, partial curve]"
same,Potency,[2],"inconclusive: 18.3 µM [inhibitor, single point] and inconclusive: 20.9 µM [inhibitor, partial curve]"
same,Potency,CRL-7250,"inconclusive: 8.31 µM [inhibitor, full curve]"
same,Potency,HEK293,"inconclusive: 11.7 µM [inhibitor, full curve]"
same,Potency,HaCat,"inconclusive: 33.1 µM [inhibitor, single point]"
same,Potency,KB-3-1,"inconclusive: 36.6 µM [inhibitor, partial curve, poor fit]"
same,Potency,OV90,"inconclusive: 3.98 µM [cytotoxic, full curve, poor fit]"
same,Potency,PA-1,inconclusive: 8.91 µM
same,Potency,SKOV3,"inconclusive: 25.1 µM [cytotoxic, partial curve, poor fit]"
same,Potency,Tov-21-G,inconclusive: 44.7 µM
CC(C)=CCNc1ncnc2c1ncn2[C@@H]1O[C@H](CO)[C@@H](O)[C@H]1O,Potency,CRL-7250,active: 1.5 µM
same,Potency,HEK293,"inconclusive: 33.5 µM [inhibitor, single point]"
same,Potency,HaCat,"inconclusive: 29.9 µM [inhibitor, single point]"
same,Potency,NIH3T3,active: 7.5 µM
same,Potency,C33A,active: 12.6 µM
same,Potency,CAOV3,active: 7.94 µM
same,Potency,CASKI,active: 12.6 µM
same,Potency,Es-2,active: 25.1 µM
same,Potency,HeLa,active: 14.1 µM
same,Potency,Hek293T,"inconclusive: 22.4 µM [cytotoxic, partial curve, poor fit]"
same,Potency,JEG-3,"inconclusive: 31.6 µM [cytotoxic, single point]"
same,Potency,OV90,active: 17.8 µM
same,Potency,PA-1,active: 7.94 µM
same,Potency,SKOV3,active: 11.2 µM
same,Potency,Tov112D,active: 7.08 µM
Cc1cnc(-c2ccccc2C(C)C)nc1NCc1ccc(-n2ccnn2)cc1,Potency,[1],"inconclusive: 5.8 µM [inhibitor, partial curve]"
same,Potency,[3],"inconclusive: 12.9 µM [inhibitor, partial curve] and inconclusive: 16.6 µM [inhibitor, partial curve]"
same,Potency,[2],"inconclusive: 11.5 µM [inhibitor, partial curve] and inconclusive: 11.8 µM [inhibitor, partial curve]"
same,Potency,CRL-7250,"inconclusive: 14.6 µM [inhibitor, partial curve, poor fit]"
same,Potency,HEK293,"inconclusive: 20.6 µM [inhibitor, single point]"
same,max response,HaCat,inactive: -29.3%
same,Potency,KB-3-1,"inconclusive: 23.1 µM [inhibitor, partial curve]"
same,Potency,C33A,inactive
same,Potency,CAOV3,inactive
same,Potency,SKOV3,"inconclusive: 4.47 µM [cytotoxic, single point]"
Cc1cc(C)c2c(c1)C(N(Cc1cc(C(F)(F)F)cc(C(F)(F)F)c1)c1nnn(C)n1)CCCN2CC1CCC(C(=O)O)CC1 (stereo not given),Potency,[1],"inconclusive: 7.31 µM [inhibitor, partial curve]"
same,Potency,[3],"inconclusive: 25.8 µM [inhibitor, single point]"
same,Potency,[2],"inconclusive: 20.5 µM [inhibitor, single point]"
same,max response,CRL-7250,inactive: 2.9%
same,Potency,HEK293,"inconclusive: 23.1 µM [inhibitor, single point]"
same,Potency,HaCat,"inconclusive: 29.1 µM [inhibitor, single point]"
same,Potency,KB-3-1,active: 14.6 µM
same,Potency,CASKI,inactive
same,Potency,Es-2,"inconclusive: 39.8 µM [cytotoxic, partial curve, poor fit]"
same,Potency,HeLa,"inconclusive: 22.4 µM [cytotoxic, single point]"
same,Potency,PA-1,inconclusive: 89.1 µM
same,Potency,SKOV3,"inconclusive: 39.8 µM [cytotoxic, single point]"
same,Potency,Tov112D,"inconclusive: 39.8 µM [cytotoxic, single point]"
